Source: PubChem BioAssay (NCATS)
Inconclusive means that the source gave no clear call. Such entries were picked first, then a sample of the others. For some of these results: Potencies of inconclusive entries are doubtful fits and often do not repeat. For some of these results: “Side channel” marks fits to a control or component signal instead of the main read-out. Active and inactive are the calls of the source. Unless noted, calls come from the whole dose curve.

Columns and labels:
[1] = target: Estrogen receptor (Homo sapiens) (UniProt P03372); assay: qHTS assay for small molecule antagonists of estrogen receptor alpha signaling (AID 588513; active = well fitted curve in the direction sought with a large enough effect in the signal ratio, with a control signal flat, not every such curve was filed as active; inconclusive = small, poorly fitted or top-dose-only effect, or effect the other way, or a change in a side signal; inactive = no such curve, though single readings can be large or run the other way; the % refers to the signal ratio; note: potency is the fitted concentration of half-maximal effect; for activity, negative = inhibition: % is set by controls: 0 for no effect and ±100 for the full control effect); conditions: ER-alpha-UAS-bla HEK293, beta-lactamase ratio, antagonist mode; activity, negative = inhibition: at 76.9 µM (top of the series) unless noted
Outline: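 ER-alpha-UAS-bla GripTite HEK 293 cells in medium with 2% charcoal/dextran-treated FBS were preincubated 4 h at 37 C, dosed with compound (1:2 titration), stimulated with 0.5nM 17-beta-estradiol for 18 h, then read by CCF4 beta-lactamase fluorescence.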

[2] = target: Estrogen receptor (Homo sapiens) (UniProt P03372); assay: qHTS assay for small molecule agonists of estrogen receptor alpha signaling (AID 588514); conditions: ER-alpha-UAS-bla HEK293, beta-lactamase ratio, 18 h; activation: at 76.8 µM (top of the series), percent of full estradiol response, vehicle zero;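 note: 0% = vehicle only and 100% = reference agonist; nearly all actives have a fitted effect of over 70% in size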
Outline: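 Efficacy is expressed against 20 nM 17-beta-estradiol (100%) and DMSO basal (0%); EC50 from Hill equation. Assay: beta-lactamase reporter in ER-alpha-UAS-bla HEK 293 cells, 18 h compound incubation, CCF4 detection.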

[3] = target: Peroxisome proliferator-activated receptor gamma (Homo sapiens) (UniProt P37231); assay: qHTS assay for small molecule antagonists of peroxisome proliferator-activated receptor gamma signaling (AID 588537; active = well fitted inhibition curve with a large enough effect in the signal ratio, with a control signal flat, not every such curve was filed as active; inconclusive = small, poorly fitted or top-dose-only effect, or effect the other way, or a change in a side signal; the % refers to the signal ratio;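 note: reporter cells co-stimulated with 50 nM rosiglitazone agonist during compound treatment; % of control where 0% means no effect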); conditions: HEK293 PPARg-UAS-bla, beta-lactamase ratio, antagonist mode; activity, negative = inhibition: at 76.8 µM (top of the series)
Outline: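 Fluorescence at 460 and 530 nm (405 nm excitation) reported beta-lactamase cleavage of CCF4 after 2 h room-temperature loading. HEK293 reporter cells in 1% charcoal/dextran-treated FBS had received compound and rosiglitazone for 16 h.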

[4] = target: Retinoic acid receptor RXR-alpha (Homo sapiens) (UniProt P19793); assay: qHTS assay for small molecule agonists of retinoid X receptor alpha signaling (AID 588544); conditions: HEK293T RXRa-UAS-bla, beta-lactamase reporter, 18 h; activation: at 76.7 µM (top of the series) unless noted; note: potency is the fitted concentration of half-maximal effect;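 for activation: 0% = DMSO basal wells and 100% = reference agonist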
[5] = qHTS assay for small molecule agonists of the antioxidant response element (ARE) signaling pathway measured by Nrf2-dependant transcriptional activity (AID 720636; active = well fitted curve in the direction sought with a large enough effect in the repeat runs; inconclusive = weak or mixed curves; inactive = no such curve, though single readings can be large; an effect the other way counts as inactive or inconclusive; note: potency is the fitted concentration of half-maximal effect;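 for activation: HepG2 cells with an ARE-driven luciferase reporter; % of control where 0% means no effect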)
Outline: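 First, ARE-luc HepG2 cells attached for 6 hr at 37 C in 1% dialyzed FBS medium. Next, compound or DMSO was added and incubated 16 hr. Finally, ONE-Glo reagent was added and luminescence measured after 30 min.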

[6] = target: Androgen receptor (Homo sapiens) (UniProt P10275); assay: qHTS assay for small molecule agonists of androgen receptor signaling (AID 588515; active = well fitted curve in the direction sought with a large enough effect in the signal ratio, with a control signal flat; inconclusive = small, poorly fitted or top-dose-only effect, or effect the other way, or a change in a side signal; inactive = no such curve, though single readings can be large or run the other way; the % refers to the signal ratio; note: potency is the fitted concentration of half-maximal effect); conditions: AR-UAS-bla HEK293, beta-lactamase ratio, agonist 16 h; activation: stronger effect = higher value
Outline: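 Stimulation of an AR-responsive β-lactamase reporter in GripTite HEK293 cells was measured after 16 h compound exposure at 37 °C, via CCF4 fluorescence after 2 h RT. EC50 from Hill fits, normalized to R1881 at 30 nM.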

[7] = target: Androgen receptor (Homo sapiens) (UniProt P10275); assay: qHTS assay for small molecule antagonists of androgen receptor signaling (AID 588516; active = well fitted curve in the direction sought with a large enough effect in the signal ratio, with a control signal flat, not every such curve was filed as active; inconclusive = small, poorly fitted or top-dose-only effect, or effect the other way, or a change in a side signal; inactive = no such curve, though single readings can be large or run the other way; the % refers to the signal ratio; note: potency is the fitted concentration of half-maximal effect); conditions: AR-UAS-bla HEK293, beta-lactamase ratio, antagonist mode, 16 h; activity change, negative = inhibition: at 76.8 µM (top of the series)
Outline: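 Antagonist mode: inhibition of R1881-stimulated (10 nM final) bla reporter in GeneBLAzer AR HEK 293 cells, 16 h at 37C, compounds titrated. IC50 and efficacy from Hill-equation fits of 405/460–530 nm FRET ratios.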

[8] = target: Bile acid receptor (Homo sapiens) (UniProt Q96RI1); assay: qHTS assay for small molecule antagonists of farnesoid X receptor signaling (AID 588526); conditions: HEK293T FXR-UAS-bla, beta-lactamase ratio, antagonist mode; activity change, negative = inhibition: at 76.7 µM (top of the series); note: % is set by controls: 0 for no effect and ±100 for the full control effect
Outline: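 Antagonist mode: titrated compounds tested against chenodeoxycholic acid stimulation (normalized to 50 uM CDCA and DMSO) in GeneBLAzer HEK293T cells for 16 h. Beta-lactamase read by CCF4 fluorescence; IC50 from Hill fits.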

[9] = target: Glucocorticoid receptor (Homo sapiens) (UniProt P04150); assay: qHTS assay for small molecule antagonists of glucocorticoid receptor signaling (AID 588533; active = well fitted inhibition curve with a large enough effect in the signal ratio, with a control signal flat, not every such curve was filed as active; inconclusive = small, poorly fitted or top-dose-only effect, or effect the other way, or a change in a side signal; the % refers to the signal ratio;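 note: cells stimulated with 2 nM dexamethasone as agonist; potency is the fitted concentration of half-maximal effect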); conditions: HeLa MMTV-bla, GRE beta-lactamase ratio, antagonist mode, 18 h; activity change, negative = inhibition: at 76.8 µM (top of the series) unless noted
[10] = target: Peroxisome proliferator-activated receptor delta (Homo sapiens) (UniProt Q03181); assay: qHTS assay for small molecule agonists of peroxisome proliferator-activated receptor delta signaling (AID 588534); conditions: HEK293T PPARdelta-UAS-bla, beta-lactamase ratio, 18 h; activation: at 76.7 µM (top of the series); note: potency is the fitted concentration of half-maximal effect
Outline: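 Agonist-mode qHTS; reporter cells, 5 hrs 37 C pre-incubation; compound titration, 18 hrs 37 C; CCF4 dye, 2 hrs RT; fluorescence read. EC50/efficacy via Hill fit.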

[11] = target: Peroxisome proliferator-activated receptor delta (Homo sapiens) (UniProt Q03181); assay: qHTS assay for small molecule antagonists of peroxisome proliferator-activated receptor delta signaling (AID 588535; active = well fitted inhibition curve with a large enough effect in the signal ratio, with a control signal flat, not every such curve was filed as active; inconclusive = small, poorly fitted or top-dose-only effect, or effect the other way, or a change in a side signal; inactive = no such curve, though single readings can be large or run the other way; the % refers to the signal ratio; note: potency is the fitted concentration of half-maximal effect); conditions: HEK293T PPARd-UAS-bla, beta-lactamase FRET ratio, 18 h; activity change, negative = inhibition: at 76.7 µM (top of the series) unless noted
Outline: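 Fluorescence from CCF4-loaded GeneBLAzer PPAR-delta-UAS-bla HEK293T cells (2 hrs RT loading) quantified reporter inhibition after an 18 hr, 37 C compound exposure across a titration.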

[12] = target: Peroxisome proliferator-activated receptor gamma (Homo sapiens) (UniProt P37231); assay: qHTS assay for small molecule agonists of peroxisome proliferator-activated receptor gamma signaling (AID 588536; active = well fitted curve in the direction sought with a large enough effect in the signal ratio, with a control signal flat, not every such curve was filed as active; inconclusive = small, poorly fitted or top-dose-only effect, or effect the other way, or a change in a side signal; inactive = no such curve, though single readings can be large or run the other way; the % refers to the signal ratio; note: potency is the fitted concentration of half-maximal effect;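 for activation: 0% = DMSO basal wells and 100% = rosiglitazone at 2 µM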); conditions: HEK293 PPARg-UAS-bla, beta-lactamase ratio, 16 h; activation: at 76.7 µM (top of the series), percent of rosiglitazone response, DMSO as zero unless noted
Outline: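 This is an agonist-mode beta-lactamase reporter assay in HEK293 PPAR-gamma-UAS-bla cells with 1% charcoal/dextran FBS. Compound titrations ran 16 h at 37 C before CCF4 detection. EC50 and efficacy are Hill fits scaled to 2 uM rosiglitazone (100%) and DMSO basal.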

[13] = target: Thyroid hormone receptor beta (Homo sapiens) (UniProt P10828); assay: qHTS assay for small molecule agonists of thyroid hormone receptor beta signaling (AID 588545); conditions: TR-UAS-bla GripTite HEK 293, beta-lactamase ratio, agonist mode, 18 h; activation: at 76.7 µM, percent of T3 response, DMSO as zero
Outline: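 In this cell-based screen, titrated compounds act on HEK 293 cells held in medium with 2% charcoal/dextran FBS, NEAA and pyruvate for 18 hrs at 37 C. Responses are expressed relative to T3 (10 nM) as 100% and basal DMSO as 0%.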

[14] = target: Retinoic acid receptor RXR-alpha (Homo sapiens) (UniProt P19793); assay: qHTS assay for small molecule antagonists of retinoid X receptor alpha signaling (AID 588546; active = well fitted inhibition curve with a large enough effect in the signal ratio, with a control signal flat, not every such curve was filed as active; inconclusive = small, poorly fitted or top-dose-only effect, or effect the other way, or a change in a side signal; inactive = no such curve, though single readings can be large or run the other way; the % refers to the signal ratio; note: potency is the fitted concentration of half-maximal effect); conditions: HEK293T RXRa-UAS-bla, beta-lactamase ratio, antagonist mode
Outline: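 Beta-lactamase reporter inhibition, read as CCF4 fluorescence ratio (ex 405, em 460/530 nm) after 2 h at RT. HEK293T UAS-bla cells, 2500/well, were stimulated with 9-cis-RA at 500 or 100 nM final alongside test compound for 18 h at 37 C.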

[15] = target: Thyroid hormone receptor beta (Homo sapiens) (UniProt P10828); assay: qHTS assay for small molecule antagonists of thyroid hormone receptor beta signaling (AID 588547; active = well fitted inhibition curve with a large enough effect in the signal ratio, with a control signal flat, not every such curve was filed as active; inconclusive = small, poorly fitted or top-dose-only effect, or effect the other way, or a change in a side signal; the % refers to the signal ratio; note: potency is the fitted concentration of half-maximal effect); conditions: TR-UAS-bla HEK293, beta-lactamase ratio, antagonist mode, 18 h
Outline: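 TR-UAS-bla GripTite HEK293 cells in 2% charcoal/dextran FBS medium; compounds 0.59 nM to 92 uM with T3 at 0.4nM final, 18 h at 37 C. Beta-lactamase read by CCF4 fluorescence (460/530 nm); Hill fits gave IC50 and efficacy.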

[16] = qHTS assay for small molecule agonists of the antioxidant response element (ARE) signaling pathway (AID 651741; active = well fitted activation curve with a large enough effect in the signal ratio; inconclusive = small, poorly fitted or top-dose-only effect, or effect the other way, or a change in a side signal; the % refers to the signal ratio; note: potency is the fitted concentration of half-maximal effect; for activation: % of control where 0% means no effect); conditions: HepG2 ARE-bla reporter, beta-lactamase FRET ratio, 16 h; activation: at 96 µM (top of the series) unless noted
Outline: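 Stably integrated ARE-beta-lactamase reporter HepG2 cells; 16 h compound incubation, 37 C; LiveBLAzer FRET substrate 2 h at room temperature; fluorescence intensity.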

[17] = qHTS assay for small molecule activators of the p53 signaling pathway (AID 651743; active = well fitted activation curve with a large enough effect in the signal ratio, not every such curve was filed as active; inconclusive = small, poorly fitted or top-dose-only effect, or a change in a side signal; the % refers to the signal ratio; note: potency is the fitted concentration of half-maximal effect; for activation: % of control where 0% means no effect); conditions: HCT-116 p53RE-bla, beta-lactamase FRET ratio, 16 h; activation: stronger effect = higher value
Outline: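 Following 16 hours of compound exposure at 37 C, HCT-116 cells bearing the p53RE-bla reporter were loaded with LiveBLAzer B/G FRET substrate for 2 hours at room temperature and fluorescence intensity was recorded.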

[18] = qHTS assay for small molecule activators of the nuclear factor-kappa B (NF-kB) signaling pathway (AID 651749; active = well fitted activation curve with a large enough effect in the signal ratio; inconclusive = small, poorly fitted or top-dose-only effect, or a change in a side signal; the % refers to the signal ratio; note: potency is the fitted concentration of half-maximal effect); conditions: NF-kB-bla ME-180 cells, beta-lactamase FRET ratio, 16 h; activation: stronger effect = higher value
Outline: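 In this qHTS format, compounds acting as activators increase NF-kB-driven beta-lactamase in ME-180 cells, measured as disrupted FRET after 16 hr exposure at 37C and 5% CO2.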

[19] = target: Peroxisome proliferator-activated receptor alpha (Homo sapiens) (UniProt Q07869); assay: qHTS assay for small molecule agonists of the peroxisome proliferator-activated receptor alpha (PPARalpha) signaling pathway (AID 651778; active = well fitted curve in the direction sought with a large enough effect; inconclusive = small, poorly fitted or top-dose-only effect, or another doubt; inactive = no such curve, though single readings can be large; an effect the other way counts as inactive or inconclusive; note: potency is the fitted concentration of half-maximal effect); conditions: PathHunter PPARalpha complementation, chemiluminescence, 6 h; max response: stronger effect = higher value
Outline: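 Enzyme-fragment complementation assay in which ligand-bound PPARalpha translocates and forms an active enzyme that generates chemiluminescence. Cells were plated overnight, exposed to compound for 6 hr at 37 C, and then given detection reagent for 60 min at room temperature.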

[20] = qHTS assay for cell viability of the p53RE-bla HCT-116 cell line (AID 743292; active = well fitted curve in the direction sought with a large enough effect; inconclusive = small, poorly fitted or top-dose-only effect, or another doubt; inactive = no such curve, though single readings can be large; an effect the other way counts as inactive or inconclusive; note: potency is the fitted concentration of half-maximal effect; nearly all actives have a fitted effect of over 55% in size)
Outline: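 Quantitative high-throughput format: compounds in DMSO were pinned onto p53RE-bla HCT-116 cells (4,000/well) and incubated 16 h at 37 C. Total intracellular ATP, read by CellTiter-Glo luminescence, reflects viable cell number.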

[21] = Cell Viability - LYMP2-014 (AID 983; active = well fitted curve in the direction sought with a large enough effect; inconclusive = small, poorly fitted or top-dose-only effect, or another doubt; inactive = no such curve, though single readings can be large; an effect the other way counts as inactive or inconclusive;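 note: cells exposed to compound for 24 h at 37 °C; plate controls were DMSO only for no effect and 92 µM tetraoctylammonium bromide for full effect; nearly all actives have a fitted effect of over 50% in size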)
Outline: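 Cells are plated at 2500/well and left 5 hr at 37 C. Compounds are added across a concentration range and incubated 24 hr at 37 C in complete medium. CellTiter-Glo is added, and luminescence is read after 30 min at room temperature.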

[22] = Cell Viability - LYMP2-022 (AID 987; active = well fitted curve in the direction sought with a large enough effect; inconclusive = small, poorly fitted or top-dose-only effect, or another doubt; inactive = no such curve, though single readings can be large; an effect the other way counts as inactive or inconclusive;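 note: 0% = DMSO alone and full effect = tetraoctylammonium bromide at 92 µM; nearly all actives have a fitted effect of over 55% in size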)
Outline: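 Cells were seeded at 2500 per well, rested 5 hr at 37 C, and treated with titrated compounds for 24 hr at 37 C. Cellular ATP was then quantified by luciferase luminescence, and AC50 values were derived from Hill-modelled concentration-response curves.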

[23] = qHTS assay to identify small molecules that stimulate interleukin-8 (IL-8) secretion (AID 651758; active = well fitted activation curve with a large enough effect in the signal ratio; inconclusive = small, poorly fitted or top-dose-only effect, or effect the other way, or a change in a side signal; the % refers to the signal ratio; note: 0% is about no effect); conditions: HTRF ratio (665/615); activation: at 92.2 µM (top of the series)
Outline: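 Compounds are added to THP-1 cells (2000 per well) and left 16 hrs at 37 C. A labeled anti-IL-8 antibody pair is then added, and IL-8 secretion is measured by time-resolved FRET after 1-3 hrs at room temperature.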
Tags give direction and shape of the fitted curve or compound fluorescence and quenching.

Sequence of UniProt P03372 (P03372 whole entry, looked up): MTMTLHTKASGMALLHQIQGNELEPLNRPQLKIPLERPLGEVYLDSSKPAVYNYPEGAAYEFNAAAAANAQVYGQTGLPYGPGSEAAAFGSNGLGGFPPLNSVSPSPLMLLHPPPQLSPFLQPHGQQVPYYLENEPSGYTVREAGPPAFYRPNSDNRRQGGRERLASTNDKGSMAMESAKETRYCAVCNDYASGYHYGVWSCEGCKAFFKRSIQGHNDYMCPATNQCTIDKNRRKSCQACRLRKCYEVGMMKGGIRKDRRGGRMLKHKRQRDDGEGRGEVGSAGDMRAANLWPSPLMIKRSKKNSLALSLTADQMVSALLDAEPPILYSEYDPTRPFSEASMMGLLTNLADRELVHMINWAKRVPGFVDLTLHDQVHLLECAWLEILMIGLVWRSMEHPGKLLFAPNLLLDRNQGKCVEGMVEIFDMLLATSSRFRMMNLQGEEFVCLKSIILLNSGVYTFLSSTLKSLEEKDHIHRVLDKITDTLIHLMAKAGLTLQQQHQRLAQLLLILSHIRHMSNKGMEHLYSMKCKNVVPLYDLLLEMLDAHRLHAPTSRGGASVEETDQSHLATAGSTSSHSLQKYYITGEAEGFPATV
Sequence of UniProt P19793 (P19793 whole entry, looked up): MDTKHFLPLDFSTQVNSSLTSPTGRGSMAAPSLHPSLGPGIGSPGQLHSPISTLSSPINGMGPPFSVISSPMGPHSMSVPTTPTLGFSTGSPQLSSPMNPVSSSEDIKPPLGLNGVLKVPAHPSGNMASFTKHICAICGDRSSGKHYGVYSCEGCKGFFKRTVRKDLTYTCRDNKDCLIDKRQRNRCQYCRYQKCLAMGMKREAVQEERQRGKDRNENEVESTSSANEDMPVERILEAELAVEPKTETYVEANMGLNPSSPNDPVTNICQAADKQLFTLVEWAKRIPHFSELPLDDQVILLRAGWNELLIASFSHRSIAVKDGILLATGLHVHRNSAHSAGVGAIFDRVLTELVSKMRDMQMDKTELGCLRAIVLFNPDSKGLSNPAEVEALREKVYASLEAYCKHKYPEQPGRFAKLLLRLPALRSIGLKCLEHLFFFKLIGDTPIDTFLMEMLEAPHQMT
Sequence of UniProt P10828 (P10828 whole entry, looked up): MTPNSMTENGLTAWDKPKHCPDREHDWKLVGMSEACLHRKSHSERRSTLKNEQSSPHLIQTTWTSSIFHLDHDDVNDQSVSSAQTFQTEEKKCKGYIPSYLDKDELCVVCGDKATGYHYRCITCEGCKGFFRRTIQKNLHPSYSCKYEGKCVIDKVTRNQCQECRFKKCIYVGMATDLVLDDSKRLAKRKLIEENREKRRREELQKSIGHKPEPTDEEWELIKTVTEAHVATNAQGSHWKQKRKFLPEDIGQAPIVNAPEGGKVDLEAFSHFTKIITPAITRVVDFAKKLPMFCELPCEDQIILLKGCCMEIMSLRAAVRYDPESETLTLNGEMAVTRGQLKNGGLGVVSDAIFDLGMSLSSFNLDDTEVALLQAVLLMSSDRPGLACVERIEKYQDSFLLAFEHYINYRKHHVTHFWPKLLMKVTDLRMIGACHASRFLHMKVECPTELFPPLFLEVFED
Sequence of UniProt Q03181 (Q03181 whole entry, looked up): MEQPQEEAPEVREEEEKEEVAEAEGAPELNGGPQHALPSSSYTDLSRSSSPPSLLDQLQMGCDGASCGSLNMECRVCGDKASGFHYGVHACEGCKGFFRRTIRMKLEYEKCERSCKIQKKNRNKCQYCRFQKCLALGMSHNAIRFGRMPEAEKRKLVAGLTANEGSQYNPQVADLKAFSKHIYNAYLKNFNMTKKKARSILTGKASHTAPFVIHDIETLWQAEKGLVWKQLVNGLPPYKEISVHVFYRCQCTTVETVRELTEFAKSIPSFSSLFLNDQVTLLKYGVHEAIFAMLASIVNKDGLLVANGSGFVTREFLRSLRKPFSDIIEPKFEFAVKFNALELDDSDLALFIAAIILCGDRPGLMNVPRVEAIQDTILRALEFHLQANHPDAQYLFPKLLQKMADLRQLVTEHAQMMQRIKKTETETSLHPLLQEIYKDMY
Sequence of UniProt P10275 (P10275 whole entry, looked up): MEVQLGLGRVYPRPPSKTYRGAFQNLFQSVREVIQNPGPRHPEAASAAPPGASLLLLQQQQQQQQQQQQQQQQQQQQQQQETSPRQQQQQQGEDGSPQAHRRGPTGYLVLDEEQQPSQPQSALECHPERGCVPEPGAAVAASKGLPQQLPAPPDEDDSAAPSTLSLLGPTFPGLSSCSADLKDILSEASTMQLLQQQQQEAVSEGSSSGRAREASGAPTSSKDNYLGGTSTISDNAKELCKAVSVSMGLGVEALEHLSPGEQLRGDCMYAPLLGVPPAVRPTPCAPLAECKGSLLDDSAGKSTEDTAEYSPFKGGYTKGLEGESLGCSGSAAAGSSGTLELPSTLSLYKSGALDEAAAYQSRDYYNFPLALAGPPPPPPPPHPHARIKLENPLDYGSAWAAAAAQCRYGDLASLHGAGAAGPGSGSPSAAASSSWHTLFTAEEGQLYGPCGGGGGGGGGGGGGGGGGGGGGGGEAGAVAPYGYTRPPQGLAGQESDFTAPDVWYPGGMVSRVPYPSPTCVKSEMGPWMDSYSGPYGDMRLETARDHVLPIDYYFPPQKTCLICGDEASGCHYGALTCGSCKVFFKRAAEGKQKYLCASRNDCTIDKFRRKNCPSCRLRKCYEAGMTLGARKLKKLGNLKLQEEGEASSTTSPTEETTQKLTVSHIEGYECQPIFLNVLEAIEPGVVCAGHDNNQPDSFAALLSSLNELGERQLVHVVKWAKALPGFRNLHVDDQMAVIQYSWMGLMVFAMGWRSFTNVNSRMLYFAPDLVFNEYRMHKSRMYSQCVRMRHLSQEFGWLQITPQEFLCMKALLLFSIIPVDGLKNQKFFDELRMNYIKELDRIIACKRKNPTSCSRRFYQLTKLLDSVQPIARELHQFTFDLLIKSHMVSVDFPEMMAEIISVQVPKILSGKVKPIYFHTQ
Sequence of UniProt Q07869 (Q07869 whole entry, looked up, the tested form may be a part): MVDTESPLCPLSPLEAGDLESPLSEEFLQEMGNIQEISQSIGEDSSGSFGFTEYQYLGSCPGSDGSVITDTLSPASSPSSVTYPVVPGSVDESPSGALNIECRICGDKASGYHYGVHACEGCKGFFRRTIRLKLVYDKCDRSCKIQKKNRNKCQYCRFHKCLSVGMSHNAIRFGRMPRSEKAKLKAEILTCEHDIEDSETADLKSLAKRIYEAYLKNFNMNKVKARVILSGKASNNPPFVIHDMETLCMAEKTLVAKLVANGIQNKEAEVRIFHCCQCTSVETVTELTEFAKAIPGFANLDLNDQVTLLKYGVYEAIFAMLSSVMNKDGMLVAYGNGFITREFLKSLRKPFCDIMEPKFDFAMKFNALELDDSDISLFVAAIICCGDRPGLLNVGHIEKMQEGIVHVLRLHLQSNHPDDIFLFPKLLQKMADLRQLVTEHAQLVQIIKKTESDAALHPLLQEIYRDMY

O=C(O)C(F)(F)C(F)(F)C(F)(F)C(F)(F)C(F)(F)F
inactive: Potency [1] | Potency [3] | Potency [4]
inconclusive: activation [2] 2.76% | Potency [5] 61.1 µM [activator, partial curve, poor fit]

CC(C)OC(=O)C(O)(c1ccc(Br)cc1)c1ccc(Br)cc1
active: Potency [20] 70.8 µM
inconclusive: Potency [1] 50.1 µM [falling, single point] | Potency [6] 39.8 µM [cytotoxic, side channel] | Potency [7] 39.8 µM [inhibitor, partial curve, poor fit] | activity change, negative = inhibition [8] -48.3% | Potency [9] 39.8 µM [inhibitor, single point] | Potency [10] 44.7 µM [side channel, rising, single point] | Potency [11] 50.1 µM [side channel, rising, single point] | Potency [12] 35.5 µM [inhibitor, partial curve] | activity, negative = inhibition [3] -32.8% | Potency [4] 35.5 µM [inhibitor, partial curve, poor fit] | activation [13] 122% | Potency [14] 44.7 µM [cytotoxic, side channel, partial curve, poor fit] | Potency [15] 50.1 µM [side channel, falling, single point] | Potency [16] 61.1 µM [activator, single point] | Potency [17] 70.8 µM [side channel, falling, single point] | Potency [18] 44.7 µM [cytotoxic, side channel, single point] | Potency [19] 31.6 µM [activator, partial curve]

CCN(CC)C(=O)SCc1ccc(Cl)cc1
inactive: Potency [12] | Potency [3] | Potency [4]
inconclusive: activity, negative = inhibition [1] 21.1% | activation [2] 89.5% | activation [16] 9.46% | Potency [5] 24.3 µM [activator, partial curve, poor fit]

CC(Cl)Cl
inactive: Potency [21] | Potency [22] | Potency [1] | Potency [2] | Potency [12] | Potency [16] | activation [17] -4.47% | Potency [5]
inconclusive: activation [13] -27.3% | activation [23] 0.105%
